Measured values from patent publication US20050249668A1, “Nir-fluorescent cyanine dyes, their synthesis and biological use” (priority 2002, published 2005).

Tests used:
[1] = Fluorescence emission maxima and quantum yields of the dyes (fluorophotometer); format: physicochemical
Procedure: (§1) About 20 mg of each fluorochrome dye was dissolved in 100 ml of deionized water. The absorbance was measured individually in three dilutions of the stock solution in deionized water or in 95% ethanol, using a Hitachi U-3000 spectrophotometer to determine the extinction coefficient. The fluorescence emission maxima and intensities of the dyes were obtained using a Hitachi F-4500 fluorophotometer, using dilute solutions in water and exciting at both the main absorption peak as well the short-wavelength shoulder of the main absorption peak. In the cases of NIR2, NIR4, NIR6, and NIR8, the quantum yields were calculated relative to a standard solution of the commercially available fluorochrome Cy5.5 (Amersham-Pharmacia, Piscataway, N.J.) with quantum yield of 0.29. The calculations for NIR1, NIR3, NIR5, and NIR7 were performed relative to a standard solution of another commercially available fluorochrome, Cy7 (Amersham-Pharmacia), with a quantum yield of 0.28.

[2] = Absorbance maxima and extinction coefficients of fluorochrome dyes (spectrophotometer); format: physicochemical
Procedure: All of the new NIR fluorochrome dyes were purified twice by preparative HPLC, using a preparative HPLC instrument (Rainin, Woburn. Mass.) with a C18-RP preparative column (Vydec, Hesperia, Calif.) (flow rate=6 ml/min; eluant A, water with 0.1% TFA; eluant B, 90% of acetonitrile and 10% of eluant A; starting at 90% A for 5 min and then a linear gradient over 40 min to 50% A). The instrument's dual HPLC detector was set at 240 and 360 nm. The dyes were collected, and solvent was removed using a speed-vac concentrator (Savant, Holbrook, N.Y.).
The K+ions of the potassium salts were replaced with H+ to generate the corresponding free acids by ion-exchange chromatography (cation-resin, Dowex-50, 8% cross-link, 100-200 mesh).
as §1

[3] = water, relative to Cy5.5 (NIR2, NIR4) or Cy7 (NIR1, NIR3)

SMILES | Stokes shift ([1]; solvent water) [nm] | QY [1, 3] | ε ([2]; solvent water) | QY ([1]; solvent H2O/CH3CN (1:1)) | Stokes shift ([1]; solvent H2O/CH3CN (1:1)) [nm] | λmax,em ([1]; solvent H2O/CH3CN (1:1)) [nm] | ε ([2]; solvent H2O/CH3CN (1:1)) | λmax,abs ([2]; solvent H2O/CH3CN (1:1)) [nm] | QY ([1]; solvent H2O/CH3CN (2:1)) | Stokes shift ([1]; solvent H2O/CH3CN (2:1)) [nm] | λmax,em ([1]; solvent H2O/CH3CN (2:1)) [nm] | ε ([2]; solvent H2O/CH3CN (2:1)) | λmax,abs ([2]; solvent H2O/CH3CN (2:1)) [nm] | other results
CC[N+]1=C(C=CC=CC=CC=C2N(CCCCS(=O)(=O)[O-])c3ccc(C(=O)O)cc3C2(C)C)C(C)(C)c2c1ccc1c(S(=O)(=O)[O-])cc(S(=O)(=O)[O-])cc21.[K+].[K+] [NIR1] | 35 | 0.23 | 268,000 L mol^−1cm^−1 | – | – | – | – | – | – | – | – | – | – | λmax,abs ([2]; solvent ethanol): 769 nm
CC[N+]1=C(C=CC=CC=CC=C2N(C)c3ccc(NC(=O)CI)cc3C2(C)C)C(C)(C)c2c1ccc1c(S(=O)(=O)[O-])cc(S(=O)(=O)[O-])cc21.[K+] [NIR9] | – | – | – | 0.11 | 40 | 803 | 224,000 L mol^−1cm^−1 | 763 | – | – | – | – | – | –
CN1C(=CC=CC=CC=CC2=[N+](CCCCS(=O)(=O)[O-])c3ccc4c(S(=O)(=O)[O-])cc(S(=O)(=O)[O-])cc4c3C2(C)C)C(C)(C)c2cc(NC(=O)CI)ccc21.[K+].[K+] [NIR11] | – | – | – | – | – | – | – | – | 0.13 | 39 | 803 | 238,000 L mol^−1cm^−1 | 764 | –
CC[N+]1=C(C=CC=CC=C2N(CCCCS(=O)(=O)[O-])c3ccc(C(=O)O)cc3C2(C)C)C(C)(C)c2c1ccc1c(S(=O)(=O)[O-])cc(S(=O)(=O)[O-])cc21.[K+].[K+] [NIR2] | 22 | 0.34 | 250,000 L mol^−1cm^−1 | – | – | – | – | – | – | – | – | – | – | λmax,em ([1]; solvent water): 684 nm; λmax,abs ([2]; solvent water): 662 nm
CC[N+]1=C(C=CC=CC=C2N(C)c3ccc(NC(=O)CI)cc3C2(C)C)C(C)(C)c2c1ccc1c(S(=O)(=O)[O-])cc(S(=O)(=O)[O-])cc21.[K+] [NIR10] | – | – | – | 0.24 | 29 | 695 | 218,000 L mol^−1cm^−1 | 666 | – | – | – | – | – | –
CN1C(=CC=CC=CC2=[N+](CCCCS(=O)(=O)[O-])c3ccc4c(S(=O)(=O)[O-])cc(S(=O)(=O)[O-])cc4c3C2(C)C)C(C)(C)c2cc(NC(=O)CI)ccc21.[K+].[K+] [NIR12] | – | – | – | – | – | – | – | – | 0.24 | 30 | 697 | 245,000 L mol^−1cm^−1 | 667 | –
